# Source: ChEMBL document CHEMBL4888484, “Replenishing the malaria drug discovery pipeline: Screening and hit evaluation of the MMV Hit Generation Library 1 (HGL1) against asexual blood stage Plasmodium falciparum ,using a nano luciferase reporter read-out” (2022)
# In all, about 150,000 compounds went through this assay and about 540 (0.36%) showed an effect of 50% or more. The list shows a part of the results.
# Tested on: Plasmodium falciparum
# Test: Primary screen in NF54 nanoGlo assay, in single point, at 2uM, 72h; a lower Z score goes with more inhibition
# Assay type: functional, Erythrocyte
# Conditions: timepoint 72 hour
Structure (SMILES),% Inhibition [%],Z score
O=C1CN(c2ncnc3c2ncn3CC(CO)C2CCOC2)CN1CC(F)(F)F (stereo unspecified),-2,0.23
Cc1ccc(-n2ncc3[nH]c(=O)ncc32)cc1,7,-0.92
CCc1ccc(NC(=O)c2c(C)oc3ncn(Cc4ccccc4)c(=O)c23)cc1,-7,0.88
CN1CC[C@@]2(CCC1=O)CN(c1nnc(-c3ccccc3)s1)CCN2C,-7,0.95
CC(Cc1ccc(F)cc1)C(=O)N1CCC[C@@H]1C(=O)O (stereo partly specified),4,-0.55
CC(C)Oc1ccc(CN2CC(Cc3nc(-c4ccncc4)no3)C2)cc1,4,-0.58
Cc1nc(CC(=O)NCCc2noc([C@@H]3CCCO3)n2)c(C)s1,5,-0.86
C=CCN1CC(=O)N(CC2CCCN(C)C2c2cccc(Cl)c2)C1=O (stereo unspecified),-6,0.84
O=c1[nH]nc(-c2ccccc2)c2cn(-c3ccccc3Cl)nc12,-34,4.02
O=C(NCCN1N=C(c2ccccc2)CCC1=O)c1cc2n(n1)CCNC2,0,0.03
COc1cccc2c1CN(C(=O)[C@@H](OC)C1CCCCC1)C2,2,-0.26
Cc1ccc(NC(=O)C2CCN(S(=O)(=O)c3ccc4c(c3)sc(=O)n4C)CC2)c(C)c1,-12,1.48
Cc1cccc(Oc2nc3ccccc3n3c(=O)n(CC(=O)NCc4ccc(F)cc4)nc23)c1C,-9,1.29
CCOCC1CCN(C(=O)c2ccc(Oc3ccncc3)cc2)CC1,-1,0.12
N#Cc1ccc(C(=O)N[C@@H]2[C@H]3CCO[C@H]3[C@H]2Cc2ccccc2)cn1,-11,1.14
Cn1nncc1CN1CCC[C@H]1c1ccc(Br)c(F)c1,-7,0.97
O=C1N[C@H]2C[C@@H](C(=O)NC[C@H]3O[C@H](CCOc4ccccc41)CC[C@@H]3O)N(Cc1ccc(Cl)c(F)c1)C2,-7,0.9
COc1ccc(NC(=O)N2CCCCC[C@@H]2CN2CCC(C)CC2)cc1,-1,0.14
Cc1nnc(OC[C@H]2CCCCN2C)s1,-15,2.12
Cc1nccnc1CN1CCC[C@@]1(C)c1ccccc1,-10,1.97
Cc1cnn(CC(=O)N2CCCN(Cc3ccc(F)cc3)[C@H](C(C)C)C2)c1,8,-1.17
O=C(Nc1ccc(-n2ncc3ccccc32)cc1)NC1CCC(O)CC1 (stereo unspecified),-7,0.84
COc1ccc2c(c1)c(CN1CCC(C(=O)NCCN3CCCCC3)CC1)cn2C,7,-1.06
